Some of the results follow.

For assay [1], the system named is HSkMC (human skeletal muscle cells). Description: cytotoxicity call (relative viability < 0.9). The settings on record: 10 µM.
Assay [2] has as its system S. aureus RN4220. Description: growth inhibition call (relative growth <= 0.2). The settings on record: 50 µM.

For `COc1ccc(NC(=O)Nc2ccc3c(c2)C(=O)N([C@H](C)CO)C[C@H](C)[C@H](CN(C)S(=O)(=O)c2ccc(OC)cc2)OCCCC[C@@H](C)O3)cc1`, the cytotoxicity call in assay [1] is “inactive”. For the same compound, the growth inhibition call in assay [2] was “inactive”.
Regarding `CN(C)CC(=O)N[C@@H]1CC[C@H](CCNS(=O)(=O)c2ccccc2)O[C@H]1CO`, the cytotoxicity call in assay [1] was “inactive”. The growth inhibition call in assay [2] was “inactive”.
In the case of `Cc1ccc(S(=O)(=O)Nc2ccc3c(c2)C(=O)N([C@H](C)CO)C[C@H](C)[C@H](CN(C)C(=O)c2ccccc2)OCCCC[C@@H](C)O3)cc1`, the cytotoxicity call in assay [1] was “inactive”. The growth inhibition call in assay [2] is “inactive”.

Source of the values: the antibiotic and cytotoxicity screens of Wong et al. (2023).
